# In the supplement of paper PMC3334620:
# Whole data set: some 33,000 sequences, median “E-score (-0.5 to 0.5)” near -0.035, cut for the highest 2% near 0.34. Some of the results follow.
# Target: T1, Mot3 (UniProt P54785)
# T1 sequence: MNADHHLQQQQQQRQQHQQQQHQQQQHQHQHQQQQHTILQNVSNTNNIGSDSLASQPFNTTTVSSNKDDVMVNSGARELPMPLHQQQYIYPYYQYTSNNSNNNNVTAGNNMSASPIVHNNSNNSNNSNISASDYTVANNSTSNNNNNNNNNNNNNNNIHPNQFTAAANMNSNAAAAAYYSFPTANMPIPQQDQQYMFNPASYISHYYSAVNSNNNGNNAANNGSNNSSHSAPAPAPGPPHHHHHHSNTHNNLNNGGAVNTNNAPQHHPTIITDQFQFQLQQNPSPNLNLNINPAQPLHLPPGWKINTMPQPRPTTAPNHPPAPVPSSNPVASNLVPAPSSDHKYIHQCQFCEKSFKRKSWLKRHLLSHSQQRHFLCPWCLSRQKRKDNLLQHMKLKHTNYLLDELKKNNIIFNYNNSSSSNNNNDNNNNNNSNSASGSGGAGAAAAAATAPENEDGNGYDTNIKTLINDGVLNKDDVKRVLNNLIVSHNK
# Assay: PBM E-score (8-mer binding enrichment) (E-score (-0.5 to 0.5)); higher = stronger / more preferred TF binding; most listed sequences are background and not binding sites
# Conditions: protein concentration: 200 nM; construct: GST-full length
# Experimental: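 Universal 'all 10-mer' protein binding microarrays (Agilent AMADID 015681) probed with GST-tagged S. cerevisiae TFs (full-length or DBD) made by in vitro transcription/translation (PURExpress), about 100-200 nM. Bound TF was detected with fluorescent anti-GST. Each ungapped 8-mer (which stands for itself and its reverse complement) is scored by the PBM enrichment score (E-score), a modified Wilcoxon-Mann-Whitney statistic from -0.5 to +0.5, computed with the Universal PBM Analysis Suite. Scale: above 0.35 generally sequence-specific binding.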
row,Sequence,PBM E-score
1,AATGCTCC,-0.24
2,AGCCTGGG,-0.0377
3,CAACCTAG,0.0147
4,CAGTCCCA,-0.00632
5,ATAATGGC,-0.0435
6,GTCGAAAA,0.0959
7,AGAAGTTC,0.0553
8,CTGCTTCC,-0.033
9,CTATACGC,0.152
10,TGGCGACA,-0.117
11,AATTAACA,0.32
12,TAAAACTA,0.156
13,ATCCGGGG,-0.223
14,AAGGTGTA,0.178
15,CACTGCCA,-0.158
16,GGGGGACC,-0.292
17,CGATCTAA,0.0474
18,AACCCAGT,0.109
19,GCGACTAC,0.136
20,ACAACTCC,-0.157
21,ACTGGCTG,-0.261
22,AAAGCATT,0.0984
23,CCATGCAA,0.0816
24,ATATGGAC,-0.0623
25,CCCATTCC,-0.202

row,Sequence,PBM E-score
1,CTTCAACC,0.0605
2,GCAGGCCC,0.0997
3,AAGATTAG,0.0808
4,AAACTCCC,-0.15
5,AATCGCTA,-0.0747
6,CCTAAAGC,-0.0702
7,TGAACTCA,0.00547
8,GCCCTGAA,-0.108
9,ATGAAATA,0.149
10,GGGTAGAA,0.101
11,ATCCATAC,-0.0429
12,GGGAGTAC,0.0218
13,ACCCAACG,0.0185
14,CTAGTAGA,0.0485
15,CACGGCCC,0.0124
16,CTTGGGAA,-0.0817
17,ACACCGTC,-0.242
18,AGCGCCCG,-0.169
19,GCGTTGAA,0.217
20,CAGTTGAC,-0.0241
21,CCGCGCCA,-0.253
22,AATAGAAC,-0.0399
23,GCCTTAGC,0.229
24,GTGGTCTA,-0.279
25,GATGTCCC,-0.255

row,Sequence,PBM E-score
1,ATTTTCGA,0.0256
2,ACGATGCT,-0.214
3,CCTAACCC,-0.105
4,AACTAGAA,0.131
5,GTCAGGAC,-0.0906
6,AGATCGAG,-0.216
7,GCCCCCTA,-0.355
8,CAGTTAAC,0.0448
9,GCTGCCCC,-0.304
10,ACCCATAA,-0.196
11,AGGCATGG,0.229
12,AATGCTTA,-0.0853
13,GGGGTCAA,-0.179
14,AAACGAGA,-0.125
15,AGTGCCTG,0.49
16,GGAAGTCA,-0.15
17,AGCATGCC,-0.131
18,CGCCCGCA,-0.212
19,CACGCTAA,0.00779
20,ACTTTCTC,-0.0771
21,GTCGATCA,0.00475
22,GGTTTCAA,-0.0441
23,GCCCGGTA,-0.0651
24,ATTGAGCG,0.0278
25,AATGCATG,0.187

row,Sequence,PBM E-score
1,CGGACTGC,0.0669
2,ATTCGTTA,0.0498
3,AATCTTGA,-0.0182
4,CGTAAATA,0.261
5,ATTTTCCG,0.025
6,ACTGTTTA,0.15
7,AAGCCATG,0.0568
8,ATGTTAAC,0.397
9,AGTCTCAG,-0.0777
10,ATCTACTA,0.035
11,GATACTTA,-0.0786
12,CCAATCGA,-0.095
13,AGCAGCTA,-0.04
14,GACACCGA,-0.0506
15,AACATAAG,0.334
16,CACTCAGG,0.0625
17,AACCCACC,-0.177
18,CAACTGGG,-0.226
19,CCCTGTTC,-0.0727
20,TGGCAGAA,0.0168
21,GATCCCCA,-0.114
22,CGAATCTA,-0.0163
23,GTTGCATA,0.0413
24,CTTCCAAG,-0.0526
25,GAGCACAC,-0.0804

row,Sequence,PBM E-score
1,ATCTCGCG,-0.0186
2,AGTGGTGC,-0.0858
3,GCCTGACC,-0.0985
4,AGGTGAGC,-0.183
5,ACCCCCTG,-0.246
6,AGTGACCG,-0.235
7,GCCTAGGC,0.143
8,CCTGGCTC,0.0598
9,ACGTCTAG,0.101
10,CCGACGAA,-0.00926
11,ACCGTGGA,-0.181
12,CAGTAAGA,-0.00465
13,ACTCACGG,-0.185
14,CGTGGCAG,-0.176
15,GTTAGGGA,-0.113
16,CGCGTGGA,-0.159
17,CGTCATTA,0.152
18,AACCAACA,0.147
19,ATCATCCC,-0.21
20,CGTTTATC,-0.0283
21,ACTAAACA,0.139
22,GTCAACCA,0.04
23,ATGACGAC,-0.0743
24,ACCACGCG,0.0395
25,ATAGTGGG,-0.137

row,Sequence,PBM E-score
1,CATGAACC,0.175
2,CACGTAGC,-0.163
3,CCCCTAAG,-0.313
4,CGTTGCCC,-0.0798
5,GAATTGGA,-0.0738
6,TGACTCCA,-0.239
7,TTAATAAA,0.23
8,AACCGCGT,0.17
9,CACGTTCG,0.00382
10,CTAGGAGA,-0.143
11,CACAGGTC,-0.272
12,ATAGGCCG,0.013
13,GTACTTAA,0.172
14,ATACAAAC,0.135
15,GGCGCCGA,0.126
16,AACGAACA,0.278
17,AGCCTGCC,0.132
18,GAGACCGA,-0.103
19,TCCAAAAA,-0.0317
20,CAACGTCA,-0.0141
21,GACCATGC,0.00946
22,GTAATGGA,0.219
23,CCGTCAGG,-0.0484
24,ACTCCTGG,0.0113
25,CCGATACG,-0.168

row,Sequence,PBM E-score
1,AAGACTTC,-0.0716
2,TAATTTCA,0.0641
3,AGGCTGCG,-0.147
4,CCTGGGCC,-0.217
5,TCATAAGA,0.0222
6,CGCGGTAC,-0.146
7,TACATCCA,0.211
8,ACCGAGTG,-0.196
9,GACTCTAA,-0.0927
10,AGTATTCA,0.00548
11,TCATCCCA,-0.183
12,CCAGTAAA,0.0503
13,CCGGATAG,-0.147
14,AATGCAGC,-0.139
15,GGGGCATA,-0.208
16,ACCAAAAG,0.121
17,ACGCCCGA,-0.216
18,CGAAAAAG,0.142
19,AAAATTTA,0.0524
20,GCATCAAC,0.084
21,CCTGTAAG,0.282
22,ACTTCCCA,-0.163
